Assay results: article PMC5491523
Results are given in words; binding and its absence hold for the method and conditions named. For part of these data: In cells and extracts the contact can be indirect. Some results given as binding are weak or reduced against the parent protein; the word gives no strength. For part of these data: Sequences can lack the tags named with a protein. Values belong to the binder of their own block, whether it stands above or below them.

Experiments:
[1] = biological target: T1, CIB2-V5 (calcium and integrin-binding protein 2, V5 tagged, wild type) (human), O75838; experiment: FRET or BRET; acceptor photobleaching FRET in fixed, co-transfected CHO-K1 cells; GFP/EGFP fusion as donor, V5 fusion stained with anti-V5 and goat anti-mouse Alexa Fluor 555 as acceptor; details: remark: other sources report otherwise
T1 chain: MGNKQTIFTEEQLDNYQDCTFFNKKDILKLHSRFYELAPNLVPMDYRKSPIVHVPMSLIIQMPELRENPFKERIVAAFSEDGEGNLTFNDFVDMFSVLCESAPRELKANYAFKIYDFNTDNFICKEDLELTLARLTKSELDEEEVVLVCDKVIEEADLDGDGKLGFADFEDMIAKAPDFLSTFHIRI

[2] = biological target: T2, mouse Tmc1 (aa 1-193), Gal4 DNA binding domain fusion (bait, plasmid pB66) (mouse) (UniProt Q8R4P5); experiment: two-hybrid; yeast two-hybrid; bait Gal4 DNA binding domain-Tmc1 (aa 1-193), prey Gal4 activation domain-Cib2 full length; diploids by mating; HIS3 reporter, growth without tryptophan, leucine and histidine
T2 sequence: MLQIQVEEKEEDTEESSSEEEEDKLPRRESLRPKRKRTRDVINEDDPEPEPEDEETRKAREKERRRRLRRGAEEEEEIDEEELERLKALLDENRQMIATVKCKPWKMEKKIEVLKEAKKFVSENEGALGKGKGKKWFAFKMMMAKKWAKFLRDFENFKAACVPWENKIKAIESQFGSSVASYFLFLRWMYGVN

[3] = biological target: T3, TMC1N (1-193), N-terminus of TMC1 (co-immunoprecipitation construct) (not stated (human or mouse cDNA cloned)) (UniProt Q8R4P5); experiment: co-IP; HEK 293 cells co-transfected; sonicated in RIPA buffer; lysates incubated overnight at 4 °C with GFP antibody on Protein A-Sepharose CL-4B beads; western blot
T3 sequence: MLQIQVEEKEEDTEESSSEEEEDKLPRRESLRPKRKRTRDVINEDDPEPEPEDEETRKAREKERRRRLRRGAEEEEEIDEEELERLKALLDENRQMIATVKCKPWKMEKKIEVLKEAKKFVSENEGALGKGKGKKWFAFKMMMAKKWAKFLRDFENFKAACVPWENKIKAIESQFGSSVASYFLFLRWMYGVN

binding [1]: binds
B1: CIB2-V5 (calcium and integrin-binding protein 2, V5 tagged, wild type), O75838 1-187 (protein)
chain: MGNKQTIFTEEQLDNYQDCTFFNKKDILKLHSRFYELAPNLVPMDYRKSPIVHVPMSLIIQMPELRENPFKERIVAAFSEDGEGNLTFNDFVDMFSVLCESAPRELKANYAFKIYDFNTDNFICKEDLELTLARLTKSELDEEEVVLVCDKVIEEADLDGDGKLGFADFEDMIAKAPDFLSTFHIRI

binding [2]: binds
B2: mouse full length Cib2, Gal4 activation domain fusion (prey, plasmid pP6) (protein, UniProt Q9Z309 1-187)
chain: MGNKQTIFTEEQLDNYQDCTFFNKKDILKLHARFYELAPNLVPMDYRKSPIVHVPMSLIIQMPELRENPFKERIVEAFSEDGEGNLTFNDFVDMFSVLCESAPRELKANYAFKIYDFNTDNFICKEDLEMTLARLTKSELEEDEVVLVCDKVIEEADLDGDGKLGFADFEDMIAKAPDFLSTFHIRI

binding [3]: binds
B3: full-length CIB2 (co-immunoprecipitation construct) (protein, UniProt Q9Z309 1-187)
chain: MGNKQTIFTEEQLDNYQDCTFFNKKDILKLHARFYELAPNLVPMDYRKSPIVHVPMSLIIQMPELRENPFKERIVEAFSEDGEGNLTFNDFVDMFSVLCESAPRELKANYAFKIYDFNTDNFICKEDLEMTLARLTKSELEEDEVVLVCDKVIEEADLDGDGKLGFADFEDMIAKAPDFLSTFHIRI
